In PubChem BioAssay AID1508624 (National Center for Advancing Translational Sciences (NCATS), 2021):
In all, about 48,000 compounds went through this assay and about 120 (0.25%) were called active. Roughly 4% stayed inconclusive and do not appear here. Calls come from the whole dose curve; as a rule, active = well fitted activation curve with a large enough effect; inconclusive = small, poorly fitted or top-dose-only effect, or another doubt; inactive = no such curve, though single readings can be large or run the other way. The list shows a part of the results.

Assay: Primary qHTS for Identification of Small Molecule Activators of Huntingtin-Antisense Promoter Activity; note: nearly all actives have a fitted effect of over 55% in size
Conditions: HEK293 HTT-AS promoter firefly luciferase reporter (activity 0% = vehicle and -100% = no light), 24 h; series mostly up to 57.5 µM; activity change, positive = activation: at the top concentration
Method in brief: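 Luminescence was read after Dual-Glo reagent and a 10 min room-temperature incubation. Values were normalized to vehicle (0% activity) and zero RLU (-100% activity). Reporter HEK293 cells had been exposed to compounds (up to 57.5 uM final) for 24 h.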

Activity change, positive = activation, inactive:
CN(Cc1ccccc1)C(=O)c1ccc2c(c1)N(Cc1ccccc1F)C(=O)c1ccccc1S2(=O)=O -37%, O=C(Nc1cc(-c2nc3ccccc3s2)ccc1Cl)c1cc2ccccc2o1 30.4%, CCCOc1cccc(NC(=O)c2c(-c3ccccc3Cl)noc2C)c1 -15.5%, CN(C(=O)CSc1nc2ccc(NC(=O)COc3ccc(Cl)cc3)cc2s1)c1ccccc1 -43.6%, O=S(=O)(Nc1ccccc1C(F)(F)F)c1ccc(N2CCCCS2(=O)=O)cc1 -23.1%, COc1ccc(Cl)cc1NS(=O)(=O)c1ccc2[nH]c3c(c2c1)CCCC3 -34.5%, Cc1cccc(C)c1NC(=O)Cn1c(=O)n(Cc2ccccc2)c(=O)c2c(C)c(C(=O)N(C)C)sc21 -23.3%, Cc1cc(C)c2oc(C(=O)Nc3ccc(S(=O)(=O)N4CCCCC4)cc3)cc(=O)c2c1 -8.43%, Cc1ccc(Cl)cc1-n1c(=O)cc(N2CCN(c3ccc(F)cc3)CC2)[nH]c1=O -32.2%, Cc1ccc(-c2nc3sc(CCNS(=O)(=O)c4cc(F)ccc4F)c(C)n3n2)cc1 -12.2%, CC(=O)N(Cc1cccnc1)c1nc2c(F)cc(F)cc2s1 -12.3%, COc1cccc(CSc2nc3n(n2)C(CC(C)C)C(C(=O)Nc2ccccc2OC)=C(C)N3)c1 (configuration not stated) -20.2%, CCCCN(CC)CCCNC(=O)Cn1ncc2c3ccccc3n(C)c2c1=O -18.1%, CCOc1ccc(S(=O)(=O)N(CC(=O)NCc2ccccc2OC)c2ccccc2)cc1 -28.9%, COc1ccc(C(=O)N2CCC(C(=O)Nc3ccc(Cl)cc3)CC2)cc1 4.16%, Cc1cc(=O)n2nc(N(C)CC(=O)NCc3cccc(Br)c3)sc2n1 -5.43%, CCOc1ccc(OCC)c(NC(=O)Cn2nc(CC)n3c(cc4sccc43)c2=O)c1 -12%, Cc1ccc(/C(=C\CN2CCCC2)c2ccccn2)cc1 -9.44%, Cc1ccc(S(=O)(=O)CC(=O)Nc2sc3c(c2C(N)=O)CCCC3)cc1 -9.28%, CC(C)CCNC(=O)Nc1ccc2c(c1)N(Cc1ccccc1)C(=O)c1ccccc1S2 -30.5%, CCc1ccc(NC(=O)Cc2c(C(=O)O)c(C)cn2C)cc1 -9.39%, Cc1ccccc1Nc1c(-c2ccc(Br)o2)nc2ccc(Cl)cn12 -23.1%, COc1cc(OC)c(NC(=O)c2cc(C)nc3c2c(C)nn3-c2ccc(C)cc2)cc1Cl -6.84%, Cc1ccc(NC(=O)CCN2CCN(CCO)CC2)cc1C 7.59%, CCOc1ccc(-c2nn(CC(=O)NC3CCCC3)c3c2cnc2ccc(C)cc23)cc1 -1.7%, COc1ccc(CCNC(=O)c2ccc3c(c2)N(Cc2ccc(Cl)cc2)C(=O)c2ccccc2S3)cc1OC -27.6%, Cc1ccc(NC(=O)CN2CCSc3ccc(S(=O)(=O)N4CCCC4)cc32)cc1 -36.3%
